# Experimental data: PubChem BioAssay AID686978 (National Center for Advancing Translational Sciences (NCATS), 2013)
# Several values for one entry are separate records, joined by “and”; a condition that tells them apart may be missing. Equal values may be shown once. Out of some 420,000 compounds screened, about 64,000 (15%) were called active. Inconclusive results, whose numbers are uncertain, are shown with a selection of clear calls. The call rests on the fitted dose curve; in most records, active means well fitted inhibition curve with a large enough effect; inconclusive means small, poorly fitted or top-dose-only effect; inactive means flat fitted curve, though single readings scatter. Potencies of inconclusive entries are doubtful fits and often do not repeat.
# Experiment: qHTS for Inhibitors of human tyrosyl-DNA phosphodiesterase 1 (TDP1): qHTS in cells in absence of CPT; further: nearly all actives have a fitted effect of over 55% in size
# Conditions: DT40 Tdp1-/- hTDP1 cells, no CPT, ATP luminescence, 48 h; activity change, negative = growth inhibition: at 46.2 µM (top of the series) unless noted
# Procedure, shortened: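 Chicken DT40 Tdp1-/- cells complemented with human TDP1, screened without camptothecin (DMSO vehicle only), 400 cells/well. Compounds pin-transferred, cells incubated at 37 °C for at least 48 hr. Growth read as ATP-dependent luminescence (CellTiter-Glo, 30 min at RT).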
# On the % scale 0 is the no-effect control and ±100 the full control effect; potency means the concentration at half of the fitted maximal effect; tags describe the fitted curve by direction and shape.
SMILES,Potency,"activity change, negative = growth inhibition"
O=C(COc1ccccc1Cl)Nc1ccccc1C(=O)NC1CC1,"inconclusive: 29.1 µM [inhibitor, single point]",–
CCCCN(CCCC)C(=S)N/N=C/c1c(C)[nH]n(-c2ccccc2)c1=O,active: 2.59 µM,–
COc1ccc(N(C(=O)c2ccco2)S(=O)(=O)c2cccs2)cc1,–,inactive: -17.1%
COc1ccc(NS(=O)(=O)c2ccc(O)c(NC(=O)c3ccc(S(=O)(=O)N4CCCCCC4)cc3)c2)cc1,"inconclusive: 13 µM [inhibitor, single point]",–
CCOCCCNC(=O)C1CCN(c2nc3ccc(Cl)cc3[nH]2)CC1,–,inactive: -10.1%
Cc1nc2ccccn2c(=O)c1NC(=O)c1ccc2c(c1)OCO2,–,inactive: -6.92%
COC(=O)c1cc(OC)c(OC)cc1NC(=O)Cc1ccccc1[N+](=O)[O-],–,inactive: -9.56%
COc1ccc(S(=O)(=O)NC2CC(C)(C)NC(C)(C)C2)cc1C(C)C,"inconclusive: 18.4 µM [inhibitor, single point]",–
Cc1ccc(NC(=O)CN(C)C(=O)CN2C(=O)NC(C)(c3ccccc3)C2=O)cc1 (stereo not given),"inconclusive: 18.4 µM [inhibitor, single point]",–
CCN(Cc1ccccc1)C(=O)COC(=O)c1n[nH]c2ccccc12,"inconclusive: 4.61 µM [inhibitor, single point]",–
O=C(Cc1cccc2ccccc12)NNC(=O)Nc1cccc(Cl)c1,–,inactive: -25.1%
CCN(CCCNC(=O)COc1cc(=O)n(CC)c2ccccc12)c1ccccc1,"inconclusive: 20.6 µM [inhibitor, single point]",–
O=C(Cn1c(-c2cccs2)cc2cc(Cl)ccc21)N1CCCCC1,"inconclusive: 25.9 µM [inhibitor, single point]",–
COCCNc1nc(Nc2ccc(F)cc2)c2sccc2n1,active: 11.6 µM,–
COc1ccc(CC(=O)NNS(=O)(=O)c2ccc3ccccc3c2)cc1OC,"inconclusive: 14.6 µM [inhibitor, partial curve]",–
Cc1ccc(C)c(NC(=O)Cn2c(=O)n(CCCS(=O)(=O)C3CCCCC3)c(=O)c3ccccc32)c1,"inconclusive: 29.1 µM [inhibitor, single point]",–
CC(C)C[C@H](NC(=O)OC(C)(C)C)c1nnc(SCC(=O)Nc2ccc(Br)cc2)o1,"inconclusive: 20.6 µM [inhibitor, single point]",–
Cc1cccc(-c2ocnc2C(=O)Nc2ncc(C)s2)c1,–,inactive: -20.1%
Cc1ccc(-c2noc(N=O)c2NO)cc1,active: 23.1 µM,–
Cc1cc(C)c(NC(=S)N(CCN2CCCCC2)Cc2ccco2)c(C)c1,active: 16.4 µM,–
COc1ccc(C(=O)C2CCCN(C(=O)c3cccnc3OC)C2)c(C)c1 (stereo not given),"inconclusive: 20.6 µM [inhibitor, partial curve]",–
Cc1cccc(CNC(=O)c2c3n(c(C)cc2=O)-c2ccccc2SC(c2sccc2C)C3)n1 (stereo not given),–,inactive: -13.5%
COc1ccc(Cl)cc1C(=O)NCC(c1ccc(N(C)C)cc1)N1CCCC1 (stereo not given),"inconclusive: 14.6 µM [inhibitor, partial curve]",–
O=S(=O)(c1ccccc1Cl)N1CCCC1c1nc(-c2ccc(Cl)cc2)no1 (stereo not given),"inconclusive: 20.6 µM [inhibitor, single point]",–

SMILES,Potency,"activity change, negative = growth inhibition"
Cc1[nH]c(=O)[nH]c(=O)c1NC(=O)c1sc2nc3c(C)cccc3cc2c1N,"inconclusive: 25.9 µM [inhibitor, single point]",–
c1ccc(-c2nnc(-c3ccccn3)c(-c3ccccn3)n2)nc1,"inconclusive: 23.1 µM [inhibitor, single point]",–
CCN(C(=O)c1ccc(N2CC3CC(C2)c2cccc(=O)n2C3)c(NC(=O)c2ccncc2)c1)c1cccc(C)c1 (stereo not given),–,inactive: -2.72%
CCOC(=O)C1(Cc2ccccc2C)CCCN(S(=O)(=O)CC)C1 (stereo not given),active: 23.1 µM,–
Cc1ccc(NC(=O)CN(C)C(=O)COc2c(Cl)cc(Cl)c3ccc(C)nc23)cc1,"inconclusive: 25.9 µM [inhibitor, single point]",–
CCOc1cc(/C=N/NC(=O)c2cccs2)cc([N+](=O)[O-])c1O,–,inactive: -9.51%
c1ccc(-c2cc3cc4c(cc3cn2)OCO4)cc1,"inconclusive: 29.1 µM [inhibitor, single point]",–
Cn1c(SCC(=O)Nc2ccccc2)nc2c([nH]c3ccccc32)c1=O,"inconclusive: 20.6 µM [inhibitor, single point]",–
COc1ccccc1-c1noc2c1C(=O)N(Cc1cn(-c3ccc(Cl)cc3)nn1)CC2,active: 23.1 µM,–
Cc1cccc2cc(CN(Cc3cccnc3)C(=S)NCCCN(C)C)c(=O)[nH]c12,"inconclusive: 29.1 µM [inhibitor, single point]",–
COC(=O)[C@]1(C)CCC[C@@]2(C)C3CC[C@@]4(C)C[C@]3(CCC21)CC(=O)N4C (stereo not given in full),"inconclusive: 25.9 µM [inhibitor, single point]",–
COc1ccc(N(Cc2cc3cccc(C)c3[nH]c2=O)C(=O)C2CCCO2)cc1 (stereo not given),"inconclusive: 8.2 µM [inhibitor, single point]",–
COc1ccc(NC(=O)CN2CCN(C3c4ccccc4-c4ccccc43)CC2)c(OC)c1,active: 25.9 µM,–
CSc1ccc(CN(C)CC(=O)Nc2ccccc2Br)cc1,"inconclusive: 29.1 µM [inhibitor, single point]",–
CCc1c(C)sc(NC(=O)Cn2nc(C(F)(F)F)c3c2CCCC3)c1C#N,"inconclusive: 16.4 µM [inhibitor, single point]",–
CC(Oc1ccc(Br)cc1)C(=O)Nc1ccc(S(=O)(=O)NC2=NCCCCC2)cc1 (stereo not given),"inconclusive: 29.1 µM [inhibitor, single point]",–
COc1ccc(NC(=O)c2cc(-c3ccc(C)cc3)on2)cc1OC,–,inactive: 1.47%
COCCNC(=O)C1(C)CCCN(C(=O)c2ccccc2OC(F)(F)F)C1 (stereo not given),–,inactive: 5.08%
O=C(O)C1C2C=CC(C3CC23)C1C(=O)N1CCc2ccccc21 (stereo not given),–,inactive: -14.4%
O=C(NCc1ccc(Cl)cc1)c1cccnc1,"inconclusive: 29.1 µM [inhibitor, single point]",–
O=S(=O)(N/N=C/c1ccc(Cl)cc1)c1ccc(Cc2ncc(C(F)(F)F)cc2Cl)s1,"inconclusive: 16.4 µM [inhibitor, partial curve]",–
COC(=O)c1sccc1NC(=S)Nc1cc(C)cc(C)c1,–,inactive: -28.3%
CC(C)(O)C(=O)N=Nc1c(O)[nH]c2ccccc12,–,inactive: -2.97%
O=C(CN1CCSC1=O)N1CCN(S(=O)(=O)c2ccc(F)cc2)CC1,–,inactive: -0.698%

SMILES,Potency,"activity change, negative = growth inhibition"
Cc1ccc(S(=O)(=O)N2[C@@H](c3ccc(C#N)cc3)C(C(=O)O)=C[C@H]2CC2CCCC2)cc1,"inconclusive: 18.4 µM [inhibitor, single point]",–
COc1cccc(NC(=O)c2ccccc2-c2nc(-c3ccc(Cl)cc3)no2)c1,"inconclusive: 29.1 µM [inhibitor, single point]",–
CS/C(=C\[N+](=O)[O-])Nc1ccc(Cl)cc1,–,inactive: -10.2%
CCC1CCCCN1CC(=O)Nc1ccc2c(c1)OCCO2 (stereo not given),"inconclusive: 29.1 µM [inhibitor, single point]",–
COC(=O)c1sc(SC)c2c1CC(C)(C)C/C2=N/O,"inconclusive: 16.4 µM [inhibitor, partial curve, poor fit]",–
COCCNC(=O)C(c1ccc(F)cc1)N(C(=O)CCC(=O)Nc1ccccn1)c1ccc(C)cc1 (stereo not given),–,inactive: -19.9%
CC(C)CNC(=S)NC(=O)c1csc([N+](=O)[O-])c1,"inconclusive: 32.6 µM [inhibitor, partial curve, poor fit]",–
CS(=O)(=O)N1CCCC(C(=O)Nc2ccc(F)c(F)c2)C1 (stereo not given),"inconclusive: 6.51 µM [inhibitor, single point]",–
Cc1nnc(C)n1/N=C/c1cccs1,–,inactive: -25.2%
COc1ccc(-c2cc(C(=O)N(C)Cc3cccc(OC)c3OC)c3ccccc3n2)cc1OC,active: 14.6 µM,–
CC1(C)C(=O)OC(c2c(F)c(F)c(F)c(F)c2F)C2(CCCCC2)C1=O (stereo not given),"inconclusive: 20.6 µM [inhibitor, single point]",–
Cc1ccc(C(=O)Nc2cccc(C(F)(F)F)c2)cc1NC(=O)c1csc(-c2ccncc2)n1,active: 10.3 µM and active: 4.11 µM,–
CC1(C(=O)N(Cc2ccccc2)Cc2ccccc2)CC1(Br)Br (stereo not given),"inconclusive: 29.1 µM [inhibitor, single point]",–
COc1cccc(/C=N/n2c(C3CCCCC3)n[nH]c2=S)c1O,–,inactive: 14.2%
O=C(N/N=C\C=C\c1ccco1)c1cc(-c2ccc3ccccc3c2)n[nH]1,"inconclusive: 29.1 µM [inhibitor, single point]",–
C/C(=N\NS(=O)(=O)c1ccc(Cl)c([N+](=O)[O-])c1)c1ccc(C)o1,–,inactive: -5.03%
O=C(Nc1ccccc1N1CCOCC1)C1CCN(S(=O)(=O)c2cccc(C(F)(F)F)c2)CC1,"inconclusive: 29.1 µM [inhibitor, single point]",–
CCn1nc(C)cc1C(=O)NC1CCCc2c1cnn2-c1cc(F)cc(F)c1 (stereo not given),active: 18.4 µM,–
O=C(/C=C\c1ccco1)Nc1ccc(N2CCN(C(=O)c3ccccc3)CC2)cc1,"inconclusive: 10.3 µM [inhibitor, partial curve, poor fit]",–
Cc1cccc(CCNS(=O)(=O)c2cc3c(cc2C)NC(=O)CO3)c1,"inconclusive: 29.1 µM [inhibitor, single point]",–
Fc1ccc(-c2nnn3c2nc(NCc2ccccc2)c2ccccc23)cc1,"inactive and inconclusive: 1.46 µM [inhibitor, full curve, poor fit]",–
COc1ccc(CC(=O)O/N=C(\N)c2ccc(C)cc2)cc1,"inconclusive: 16.4 µM [inhibitor, single point]",–
